The campaign covered roughly 410,000 compounds. About 6,400 (1.6%) were called active. Inconclusive results, whose numbers are uncertain, are shown with a selection of clear calls. Calls follow the shape of the dose curve; as a rule, active = well fitted inhibition curve with a large enough effect; inconclusive = small, poorly fitted or top-dose-only effect; inactive = no such curve, though single readings can be large or run the other way. Potencies of inconclusive entries are left out as doubtful fits.
What follows are compounds tested against Glucagon-like peptide 1 receptor (Homo sapiens) (UniProt P43220) (assay: qHTS of GLP-1 Receptor Inverse Agonists (Inhibition Mode)). Details: HEK293 GLP-1R CRE-luciferase, luminescence, 24 h, GLP-1R form is constitutively active; activity change, negative = inhibition: at 38.3 µM (top of the series) unless noted.
In short: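 Constitutively active GLP-1R drives a cAMP-responsive luciferase in stably transfected HEK293 cells; test compounds are added after overnight (12 h) attachment and left 24 hr, and signal loss in luminescence marks inhibition.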
% is scaled to controls: 0 for no effect and ±100 for the full control effect; potency is read from the fitted curve at half-maximal effect; tags tell the direction and shape of the fitted curve.
Also: nearly all actives have a fitted effect of over 55% in size.

Sequence of UniProt P43220 (P43220 whole entry, looked up): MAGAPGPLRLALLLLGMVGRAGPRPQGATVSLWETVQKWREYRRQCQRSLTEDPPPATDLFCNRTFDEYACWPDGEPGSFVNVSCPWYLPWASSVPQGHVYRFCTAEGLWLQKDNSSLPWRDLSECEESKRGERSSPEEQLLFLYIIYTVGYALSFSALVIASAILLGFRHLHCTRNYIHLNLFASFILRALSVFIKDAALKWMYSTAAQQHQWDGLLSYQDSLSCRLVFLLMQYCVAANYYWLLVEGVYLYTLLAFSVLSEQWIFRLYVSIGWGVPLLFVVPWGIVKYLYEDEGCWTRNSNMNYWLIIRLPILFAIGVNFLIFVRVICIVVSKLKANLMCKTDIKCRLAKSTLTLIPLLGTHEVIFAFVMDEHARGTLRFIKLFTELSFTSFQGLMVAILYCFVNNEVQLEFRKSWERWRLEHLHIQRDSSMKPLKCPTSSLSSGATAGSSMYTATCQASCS

SMILES	Potency	activity change, negative = inhibition
CCN(CC(=O)Nc1c(F)cccc1F)C(=O)c1cc(-c2cccs2)nn1-c1ccccc1	active: 10 µM	–
COC(=O)[C@]12CCCCC=C1N(Cc1cccc3ccccc13)C(=O)[C@H](CC(=O)N1CCOCC1)C2	inconclusive [inhibitor, single point]	–
CCOC(=O)c1cc(-c2ccccc2)n(-c2cccc(C(=O)Nc3cccc(SC)c3)c2)c1C	active: 3.55 µM	–
CCOC(=O)C1CCCN(CC(=O)Nc2c(C(=O)OC)[nH]c3ccc(Cl)cc23)C1 (centres undefined)	inconclusive [inhibitor, partial curve, poor fit]	–
Fc1ccccc1C1CCN(Cc2nc(CC3CC3)no2)C1 (centres undefined)	inconclusive [inhibitor, single point]	–
CC(C)c1nc2ccccn2c1NC1CCCCC1	inconclusive [inhibitor, partial curve, poor fit]	–
COCCOC(=O)c1[nH]c2c(c1C)C(=O)CC(c1cccs1)C2 (centres undefined)	inconclusive [inhibitor, full curve]	–
O=C(NCCCn1ccnc1)c1ccc(N2CCCCC2)c([N+](=O)[O-])c1	inconclusive [inhibitor, partial curve, poor fit]	–
CCOC(=O)N1CCC(N2Cc3cccc(C(=O)Nc4ccc(N(CC)CC)cc4C)c3C2=O)CC1	inconclusive [inhibitor, partial curve, poor fit]	–
CCOC(=O)/C(=N\Nc1ccc(Cl)cc1)Sc1nnc(-c2ccc(OC)cc2)n1C	–	inactive: 0%
C=CCN=C1SCC(=O)N1S(=O)(=O)c1ccc(C)cc1	–	inactive: -2.54%
COc1ccc(NC(=O)c2ccco2)cc1NC(=O)COc1ccc(C)c(C)c1	inconclusive [inhibitor, full curve, poor fit]	–
Nn1c(Cc2cccc3ccccc23)nnc1SCC(=O)NCC1CCCO1 (centres undefined)	–	inactive: -12.1%
COc1cccc(CNC(=O)CCC2CCCN(c3cc(C)nc(N4CCCC4)n3)C2)c1 (centres undefined)	inconclusive [inhibitor, single point]	–
CCC1(c2ccc(Cl)cc2)NC(=O)N(CC(=O)NCc2ccc(F)cc2)C1=O (centres undefined)	inconclusive [inhibitor, partial curve, poor fit]	–
COc1cccc(C(O)c2nc(-c3ccccc3OC)cs2)c1 (centres undefined)	inconclusive [inhibitor, partial curve, poor fit]	–
c1ccc(Nc2cc(Nc3ccccc3)[nH]n2)cc1	inconclusive [inhibitor, single point]	–
CC(=O)c1cccc(NC(=O)C(C)OC(=O)CN2C(=O)NC(C)(C)C2=O)c1 (centres undefined)	–	inactive: 10.1%
O=C(/C=C/c1cccc2ccccc12)N1CCOCC1	inconclusive [inhibitor, single point]	–
CCCCNC(=O)c1nn(C)c2c1CSc1ccccc1-2	inconclusive [inhibitor, single point]	–
Cc1ccc(C(=O)c2cn(Cc3cccc(Cl)c3)c3nc(C)ccc3c2=O)cc1	inconclusive [inhibitor, single point]	–
CCc1ccc(NC(=O)CSc2ccnc(=O)[nH]2)cc1	–	inactive: 18.9%

SMILES	Potency	activity change, negative = inhibition
CN(C)CC(=O)N1c2ccccc2Sc2ccc(Cl)cc21	inconclusive [inhibitor, partial curve]	–
CCc1nc2c(OCc3ccccc3C)cccn2c1N(C)C(=O)CC(C)C	inconclusive [inhibitor, partial curve, poor fit]	–
CCOc1ccc(CCN2C(=S)N([C@@H](Cc3ccc(O)cc3)CN3CCC[C@@H]3CN3C(=S)NC[C@@H]3Cc3ccccc3)C[C@@H]2Cc2ccccc2)cc1	inconclusive [inhibitor, partial curve, poor fit]	–
COc1cccc(C(=O)NCC2OCCc3ccccc32)c1 (centres undefined)	–	inactive: 10%
Cc1nn(C)c(C)c1S(=O)(=O)N(CC(=O)NCCc1ccccc1)c1ccc(C(C)C)cc1	–	inactive: -1.72%
CCn1nc(C)cc1C(=O)N1CCc2c([nH]c3ccccc23)C1c1cc(F)ccc1F (centres undefined)	active: 10 µM	–
O=C(NCCc1ccccc1)c1ccc2c(c1)N(Cc1ccc(Cl)cc1)C(=O)CS2	inconclusive [inhibitor, single point]	–
COc1ccc(-c2coc3c(C(=O)NCCN4CCOCC4)cccc23)c(C)c1	inconclusive [inhibitor, partial curve, poor fit]	–
CC(C)c1ccc(/C=N/n2c(-c3ccccc3)n[nH]c2=S)cc1	inconclusive [inhibitor, single point]	–
Cc1cc(C(=O)Nc2sc3c(c2C#N)CCC3)no1	inconclusive [inhibitor, partial curve, poor fit]	–
COc1ccc(-c2sc3ccc(OC)cc3c2-c2ccc(O)cc2)cc1	inconclusive [inhibitor, partial curve, poor fit]	–
C=CCn1c2ccccc2c(=O)c2cc(C#Cc3ccccn3)ccc21	–	inactive: 13.1%
COc1cccc(NC(=O)CSc2nc3ccccc3nc2N2CCCC2)c1	inconclusive [inhibitor, partial curve]	–
CCOC(=O)CSc1nc2sc3c(c2c(=O)n1C1CCCCC1)CCN(C)C3	inconclusive [inhibitor, partial curve, poor fit]	–
Cc1ccc(N2CCN(C(=O)NC3CCCCC3)CC2)c(C)c1	inconclusive [inhibitor, partial curve, poor fit]	–
COc1ccc2nc3c(c(-c4ccccc4)c2c1)CCC3	–	inactive: -5.85%
O=C(N/N=C\c1ccccc1OCc1ccccc1)c1ccco1	inconclusive [inhibitor, single point]	–
Cc1ccc(S(=O)(=O)Nc2cccc3c2CCCC3)cc1	inconclusive [inhibitor, partial curve, poor fit]	–
COc1ccc(-c2cc(C(F)(F)F)n3nc(C(=O)N4CCOCC4)c(Cl)c3n2)cc1	inconclusive [inhibitor, partial curve, poor fit]	–
Cc1cc(C)cc(NC(=O)NN2C(C)CCCC2C)c1 (centres undefined)	inconclusive [inhibitor, single point]	–
CCOC(=O)[C@@H]1[C@H]2COc3ccc(Br)cc3[C@@H]2N2C(=O)N(c3ccccc3)C(=O)[C@]12C	inconclusive [inhibitor, single point]	–
Cc1cc(Cl)ccc1C(=O)C1CCCN(C(=O)c2cncs2)C1 (centres undefined)	inconclusive [inhibitor, single point]	–

SMILES	Potency	activity change, negative = inhibition
CCn1cc(C(=O)N(C)Cc2ccccc2)c(=O)c2cc(S(=O)(=O)N3CCc4ccccc4C3)ccc21	–	inactive: -15.4%
Cc1cc(Br)ccc1NC(=O)CNC(=O)CNc1cccc([N+](=O)[O-])c1	inconclusive [inhibitor, partial curve, poor fit]	–
COc1cc(C)nc(N(Cc2ccccc2)S(=O)(=O)c2ccc(C)cc2)n1	inconclusive [inhibitor, partial curve, poor fit]	–
CC1CCN(C(=O)c2cc(-c3ccccc3O)on2)CC1	inconclusive [inhibitor, single point]	–
CCN(CC)S(=O)(=O)c1ccc(C(=O)Nc2cc(C)cc(C)c2)cc1	inconclusive [inhibitor, partial curve, poor fit]	–
Cc1cc(C)nc(N2CCC(C(=O)O)CC2)n1	–	inactive: 0.279%
Cc1cc(C(=O)Nc2ccccc2N2CCCCC2)no1	inconclusive [inhibitor, single point]	–
Cc1ccc(C)c(S(=O)(=O)N2CCN(CC(=O)NC(=O)NCc3ccccc3)CC2)c1	inconclusive [inhibitor, partial curve, poor fit]	–
COc1cccc(-c2csc(Nc3ccc(Oc4ccccc4)cc3)n2)c1	inconclusive [inhibitor, single point]	–
COc1cc(NC(=O)COc2cc(O)c3c(c2)OC(C)(C)CC3=O)cc(OC)c1	inconclusive [inhibitor, single point]	–
COCCNC(=S)N(CCc1c(C)[nH]c2ccccc12)Cc1ccco1	inconclusive [inhibitor, single point]	–
COc1cc(C)ccc1OCCSc1nc2ccc(NC(=O)c3ccco3)cc2s1	inconclusive [inhibitor, single point]	–
Cc1csc(NC(=O)c2ccc(Br)s2)n1	inconclusive [inhibitor, single point]	–
CC1Cc2ccccc2N1CC(=O)NC(=O)NCc1ccccc1 (centres undefined)	inconclusive [inhibitor, single point]	–
COC(=O)c1c(C)nn(-c2ccc(OC(F)(F)F)cc2)c1-c1snnc1C	inconclusive [inhibitor, partial curve, poor fit]	–
O=C(COc1ccc(Cl)cc1Cl)NC(=O)N1CCCCC1	inconclusive [inhibitor, single point]	–
c1cc2cc(CNc3nc(NCC4CC4)nc4ccsc34)ccc2o1	inconclusive [inhibitor, partial curve, poor fit]	–
COCCCN1C(=O)C(=O)/C(=C(/O)c2ccc(OC)cc2)C1c1cccc(OC)c1 (centres undefined)	–	inactive: 4.8%
CC1CCCC(C)N1C(=O)COC(=O)c1cccnc1Cl (centres undefined)	–	inactive: 5.24%
CCOc1ccc(-c2nc(Cn3c(=O)cc(C)c4c(C)nn(-c5ccccc5)c43)c(C)o2)cc1	–	inactive: 2.93%
